Test results as given in the supplement of paper PMC5499739.
Over roughly 16,000 sequences, “Z-score” has its median near -0.37; the highest 2% begin near 3.2. The list shows a part of the results.

What follows are sequences tested on RBM10 RRM1-ZnF (GST-tagged construct) (assay: RNAcompete 7-mer binding Z-score; higher = stronger binding preference).
Outline: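 Bound RNA was identified by microarray hybridisation after GST-tagged RBM10 constructs (20 pmol) had been mixed with 1.5 nmol of a designed pool of 241 399 RNAs up to 41 nt, transcribed from microarray-derived DNA templates. Binding ran for 30 min at 4°C in 1 ml Hepes pH 7.8 buffer with KCl, NaCl, glycerol, DTT, BSA and glutathione Sepharose beads, with four 2-min washes at 4°C afterwards. For every heptamer motif, a one-sided Z-score for enrichment was computed across the probes that contained it.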

Sequence	RNAcompete 7-mer binding Z-score
CUUGUUG	-0.513
UUGACCC	-0.545
CAGUAAG	0.128
ACUGAGU	-0.175
AUGAGUA	0.625
CGAUGGC	0.495
GAGUGAG	1.69
AGCGACA	0.111
GUACGGG	3.08
AAGUAUU	-0.337
GCUUAGG	0.235
AGAUCAC	-0.688
CGGCCAU	-0.922
UAGUAUC	-0.431
UCAUUAU	-0.597
GAGUGGU	2.46
GAGAGGC	0.859
AAAGCAA	0.124
GUUCUGA	-0.483
ACACUCA	-0.516
UGUGCAC	-0.0934
AUACGGA	0.92
UGAUUGC	-0.236
UCGACCU	-0.782
UAUGUAA	-0.23

Sequence	RNAcompete 7-mer binding Z-score
UUUGAAU	-0.704
AAAGUGA	0.914
ACUCUCC	-0.711
UCUCUCG	-0.711
UACAUUU	-0.733
CAACCUU	-0.954
AUUGCAC	-0.6
AGGACGA	0.66
AUUUUUU	-0.896
UCCUGGU	-0.467
UUCUACA	-0.717
UGUAUCG	-0.399
CUUCAAU	-0.685
GACCUCC	-0.795
AAAAUCC	-0.759
GAACAUA	-0.376
GCCCGGC	-0.318
GGUAGUA	1.24
UUGCUGC	-0.529
UGACUGA	-0.119
CCAGUCC	-0.789
UUAGCUU	-0.685
CGCCCUC	-0.587
UUCGACU	-0.779
GAACCAC	-0.477

Sequence	RNAcompete 7-mer binding Z-score
CAUUAAA	-0.733
ACUAGAU	-0.386
CCUUUUG	-0.909
UAAUGGC	0.456
UGCAGGU	0.849
AGUAGAC	0.264
UUUUUGU	-0.685
GGUCCCG	0.218
UCCCCAA	-0.48
GAUCAAU	-0.236
CUCUCGA	-0.594
UCUGAUG	-0.474
UAACCAU	-0.772
CAGAAAU	-0.629
CGGCCAA	-0.493
GUCGGGA	1.24
CGUACGG	0.498
GGUACCA	0.218
AAACUAC	-0.448
UAAUGUU	-0.35
UAUAAGA	-0.00571
ACAAUUC	-0.655
CUAUAAG	-0.275
CGCCGAA	-0.558
GGCUGCG	0.803

Sequence	RNAcompete 7-mer binding Z-score
CAGGUCA	0.498
CGGCCGC	-0.49
GCUCCGA	-0.688
ACGUCUA	-0.571
CAGCCAG	-0.493
ACUAGUC	-0.532
GAUAUAU	-0.178
GCAACGC	-0.207
CAUAGAA	-0.204
UUAUAUU	-0.526
CGUACCA	-0.597
AAACUGU	-0.503
UUCAUGC	-0.685
UGGCCAA	-0.324
AAGGCCU	-0.457
AACAAUG	-0.126
GUUGACG	0.495
AGUGUCC	-0.604
GGACAAG	1.56
GUGUUCC	-0.402
CCGAACG	-0.201
GCGGCAA	0.443
CUAACCC	-0.756
AAGGUCC	0.319
UGAAGGA	2.99

Sequence	RNAcompete 7-mer binding Z-score
GUAGUAC	0.29
AGAGGGC	0.771
UCUGGAG	0.0983
GUUGAAC	0.0495
GGCUCAA	-0.126
AAAGAGC	0.53
ACGACGG	0.732
CAGGUCU	-0.535
CCUCGGU	-0.259
AACGUAC	-0.373
CGACUGU	-0.798
GCGUGUU	-0.0837
UGGGCAU	1.32
GAUAUUG	0.267
ACGCGAC	-0.428
UCGCGUC	-0.451
UAAACCU	-0.701
CUCAGAA	-0.412
CCCGAUU	-0.811
CUAAGCU	-0.626
GUUGGUG	2.54
UGGCUCC	-0.461
UAAAGCC	-0.691
AUGAUUG	0.309
GGAGAAC	1.56

Sequence	RNAcompete 7-mer binding Z-score
CUUUUUC	-0.659
GUGAUAU	0.339
GGACGAA	0.826
ACGAGUU	-0.305
AGCCCCA	-0.376
CUUGGAA	0.166
UGGAUUG	1.78
UACCUGC	-0.743
AUAAACU	-0.539
GCCCGAU	-0.565
CAAUCAU	-0.704
UUCAUGA	-0.649
UCUUGUU	-0.633
UAGGGGC	2.25
GCUGGGC	0.862
GUACGAA	0.0658
UAUCACU	-0.707
CGUGCCC	-0.561
AUGUAUA	-0.253
UCCCGCA	-0.526
UUGCACC	-0.591
AACUGCG	-0.415
UGUACCG	-0.233
AGUCGCG	-0.103
CCUCUCU	-0.753

Sequence	RNAcompete 7-mer binding Z-score
AGCCACC	-0.474
UGCGACC	-0.675
CAUUGUG	-0.253
GCAGCGG	2.02
AUCACCC	-0.655
AGAUAGC	-0.142
UGCGUCA	-0.409
ACUACGU	-0.47
UCUCUCA	-0.724
ACGCAAC	-0.529
AACCAGU	-0.464
UUCGGAG	0.361
AGUCUAG	-0.00246
CUAAUAU	-0.607
UGUUAUG	-0.295
GUUGGAC	1.28
UGAACGC	-0.123
ACACGUC	-0.561
GAUUUAA	-0.334
GCAGGCA	0.495
CAUUCUA	-0.841
UUGAUUU	-0.652
CUUAUCU	-0.824
GGUACGG	2.64
GAGAUUA	0.306

Sequence	RNAcompete 7-mer binding Z-score
UCUAGCA	-0.691
AUCACGC	-0.383
CCUAUUU	-0.98
AGCCCUA	-0.714
UAUUCUC	-0.72
GCUUGUC	-0.665
AAAUUCC	-0.867
UGCGAAC	-0.0999
AUCCUUA	-0.844
GACCCAC	-0.659
UUCGCAA	-0.743
AUACUCG	-0.62
UCAAGUG	-0.035
AAGUAAG	0.761
UAUAAUA	-0.412
CACGGGG	2.66
CACGAAC	-0.626
CGCUGGC	-0.379
AUAGCGC	-0.457
UUACGUC	-0.535
UCUAUUG	-0.649
CUUCCCU	-0.824
UUAUUGC	-0.772
ACCGACG	-0.256
UAGAAGU	0.342

Sequence	RNAcompete 7-mer binding Z-score
CUGGCGU	-0.259
CCGCUCA	-0.805
UGCUAAA	-0.574
CUUCACA	-0.746
AACAGGG	3.15
CCAUACG	-0.72
UUCUAAU	-0.766
CCUGUUU	-0.824
UUGGGUA	2.33
GGACUGA	0.914
UAGUUGA	0.277
AGGCGUC	-0.00896
CCGCUAU	-0.75
CCAGACA	-0.529
GGCGAUG	1.48
AUGGGAA	3.97
CCCAAUU	-0.691
UUCGCAG	-0.474
CAGGCAG	0.725
CAUUCUC	-0.844
AGGUGGU	2.18
CUGUGCA	-0.383
UGCAGCU	-0.223
UGUGGCC	0.16
GCGCGUA	-0.171

Sequence	RNAcompete 7-mer binding Z-score
GCAAUCC	-0.629
UGUCUUU	-0.6
CCCCAUG	-0.591
AGGAUCU	-0.334
AUUCGGU	-0.145
UAAUAUU	-0.607
AUGAUGC	-0.204
UAGUAAU	-0.23
AAGAUAU	-0.373
CCCGGUA	-0.139
ACUUUAU	-0.779
GAAUAUA	-0.0999
CCCAGUA	-0.623
GGCAAAC	0.3
GGCAAGG	2.89
GCACCUU	-0.659
GGAAACG	1.75
UGGUGCG	1.73
CCGCCGC	-0.561
UACUUCC	-0.971
UACGAAC	-0.5
UAGGCUU	-0.246
UCCGUAA	-0.727
GUGCACC	-0.113
CGUAUAA	-0.243

Sequence	RNAcompete 7-mer binding Z-score
UCUGGCG	-0.409
AUUGAAA	-0.292
CUAAAAG	-0.194
UGACUCC	-0.652
CCUACAU	-0.883
CACAUAU	-0.75
CGGUUUC	-0.168
UGUCGUG	-0.0967
GUUAGCG	0.452
UAAAACC	-0.548
GUCGACC	-0.448
UCCUGCU	-0.876
GUACCUC	-0.519
CCUGGAG	0.176
UGCAGCC	-0.474
CGUCGGG	0.868
GUCGUCG	0.0463
UAGAGGU	1.61
CACAAAA	-0.581
GACCGGA	0.03
GCUAGGU	1.08
GCCGAAG	-0.00571
UAAAAAC	-0.35
UGACACA	-0.373
AGACGUU	-0.552

Sequence	RNAcompete 7-mer binding Z-score
UCGUAAU	-0.61
CUGUAGG	0.3
GAUCGCG	-0.266
AACACGU	-0.353
CACAGUA	-0.314
CCCCACU	-0.571
ACGUCCA	-0.769
UUGCUCA	-0.652
UAGAUGA	0.358
GCACUCU	-0.662
GAACACG	0.235
UCCUUAC	-0.759
CUGAUUA	-0.698
AUCUACA	-0.568
AUACUUU	-0.88
CAAUAAU	-0.694
ACUUGCA	-0.73
GGGCCCA	-0.155
GCUACUU	-0.717
GAAAAUG	1.43
CUGCAUA	-0.535
AACGUAG	0.605
ACCGCCU	-0.792
ACUUCCA	-0.802
CCGAGAA	-0.399

Sequence	RNAcompete 7-mer binding Z-score
AUACGUU	-0.584
AGUCGGA	0.787
AGUAGCG	0.472
UUGAAUU	-0.552
GUCCUCU	-0.513
UAGCGCU	-0.519
GAGACAA	0.407
AUCAAGA	-0.266
ACAGAUA	-0.431
CAUAUUU	-0.886
CCCCAUC	-0.474
AUCGCUU	-0.802
GCUCUCC	-0.626
AUUCCGU	-0.746
UGAGCGA	1.23
GUGUGGA	2.98
GCGGAGA	1.61
GGUUGGU	2.56
ACCUGUC	-0.766
AGGUGAC	1.45
UACUAAG	-0.285
CGCCCGG	-0.249
CCCCGGC	-0.145
CAUCGGG	0.884
GGCGAGG	2.8

Sequence	RNAcompete 7-mer binding Z-score
UGUUUGU	0.0658
GGGGAGA	3.3
CGCAUCC	-0.694
CUAGUUA	-0.412
UCACGUC	-0.558
CUUCUAU	-0.841
AAUAAGU	-0.0902
UGUGGAG	2.62
GUUAGAG	1.18
AGGUGAA	2.21
AUAGAUG	0.543
CAGAGCU	-0.415
CUGCAGG	0.417
CACUCAC	-0.617
UGUGCUG	0.222
UCACAAU	-0.646
UUCCAUC	-0.675
GGAAGCA	1.5
UUUUGAG	-0.11
GCUAGGC	-0.0285
UUUUAGU	-0.558
UAGGUAA	1.74
AAUCGAA	-0.181
CGUUUGA	-0.717
GCGUAUU	-0.22

Sequence	RNAcompete 7-mer binding Z-score
GCUGAGG	1.5
GUCUUGA	-0.724
ACGGCGU	-0.00246
UUCCGUC	-0.652
CAGUAGG	1.58
CCUGCUA	-0.961
AAGCAAC	-0.191
UUAGGCG	0.566
GGCGGCC	0.456
GCAAAUU	-0.47
AUAGACU	-0.561
ACGGGUC	1.19
AGUGCCC	-0.47
AAGUGAG	1.24
CGCUCUU	-0.795
ACCCAGC	-0.587
UACCUCU	-0.746
